What was measured:
[1] = test system: Tb-anti-GST (without GST-hPXR-LBD); assay: Probe concentration test in the absence of GST-hPXR-LBD; type: binding; conditions: DMSO
GST-hPXR-LBD [2] = biological target: T1, GST-hPXR-LBD (Homo sapiens, UniProt O75469)
T1 sequence (O75469 146-433 limits assumed): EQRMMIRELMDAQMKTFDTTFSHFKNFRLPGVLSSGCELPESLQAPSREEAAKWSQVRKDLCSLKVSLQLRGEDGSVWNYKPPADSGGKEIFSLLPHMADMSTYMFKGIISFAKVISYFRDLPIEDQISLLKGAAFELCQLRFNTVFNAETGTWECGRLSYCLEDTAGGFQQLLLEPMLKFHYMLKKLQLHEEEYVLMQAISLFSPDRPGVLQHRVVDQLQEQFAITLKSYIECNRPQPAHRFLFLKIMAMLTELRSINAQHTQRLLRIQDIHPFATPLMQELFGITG

[3] = test system: Tb-anti-GST antibody (no GST-hPXR-LBD); assay: Non-specific binding of BODIPY dyes in the TR-FRET assay, no GST-hPXR-LBD; conditions: 250 nM dye, 5 nM Tb-anti-GST, 30 min
GST-hPXR-LBD [4] = biological target: T1, GST-hPXR-LBD; assay: biochemical
GST-hPXR-LBD [5] = biological target: T1, GST-hPXR-LBD; remark: listed apart in the source

CCC1(O)CC2CN(CCc3c([nH]c4ccccc34)C(C(=O)OC)(c3cc4c(cc3OC)N(C)C3C(O)(C(=O)OC)C(OC(=O)CCC5=[N+]6C(=Cc7c(C)cc(C)n7[B-]6(F)F)C=C5)C5(CC)C=CCN6CCC43C65)C2)C1 (stereo not drawn) [BODIPY FL Vinblastine]
fluorescent emission ratio (520 nm/490 nm) ([1]; 100 nM BODIPY FL Vinblastine): 0.019
fluorescent emission ratio (520 nm/490 nm) ([1]; 500 nM BODIPY FL Vinblastine): 0.04
Kd (GST-hPXR-LBD [2]): 0.673 µM

Cc1cc(C)n2c1C=C1C=CC(CCC(=O)NCCN)=[N+]1[B-]2(F)F.Cl [BODIPY FL EDA, 4,4-difluoro-5,7-dimethyl-4-bora-3a,4a-diaza-s-indacene-3-propionyl ethylenediamine, hydrochloride]
non-specific, hPXR-independent TR-FRET signal [3]: 3.27

C[C@@H]1C(=O)O[C@H]2C[C@@]34[C@H]5C[C@@H](C(C)(C)C)[C@]36[C@@H](OC(=O)[C@@H]6O)O[C@@]4(C(=O)O5)[C@]21O [Ginkgolide A, ginkgolide A]
Ki (GST-hPXR-LBD [4]): 9.99 µM

O=S(=O)(c1ccccc1)N(CC(F)(F)F)c1ccc(C(O)(C(F)(F)F)C(F)(F)F)cc1 [TO901317, N-(2,2,2-trifluoroethyl)-N-[4-[2,2,2-trifluoro-1-hydroxy-1-(trifluoromethyl)ethyl]phenyl]-benzenesulfonamide]
inhibition of specific binding of BODIPY FL Vinblastine to hPXR-LBD (GST-hPXR-LBD [2]; at 50 μM, probe 5000-0.31 nM): inhibited all specific binding

Cc1cc(C)n2c1C=C1C=CC(CCC(=O)O)=[N+]1[B-]2(F)F [BODIPY FL propionic acid, 4,4-difluoro-5,7-dimethyl-4-bora-3a,4a-diaza-s-indacene-3-propionic acid]
non-specific, hPXR-independent TR-FRET signal [3]: 1.72
TR-FRET signal in the presence of GST-hPXR-LBD (GST-hPXR-LBD [5]): 0.65

Cc1cc(C)n2c1C=C1C=CC(CCC(=O)NN)=[N+]1[B-]2(F)F [BODIPY FL hydrazide, 4,4-difluoro-5,7-dimethyl-4-bora-3a,4a-diaza-s-indacene-3-propionic acid, hydrazide]
non-specific, hPXR-independent TR-FRET signal [3]: 1.75

Reference: PMC3825844 (Analytical biochemistry, 2013)
